# Data from the supplement of paper PMC8728848.
# The other results are listed elsewhere or left out.
# Columns and labels:
# Experiment in all cases: glycan array binding signal (z-score within array); higher = stronger binding
# Details in all cases: glycan notation: IUPAC condensed, linker removed
# [1] = target: Neu5Ac(a2-3)Gal(b1-4)GlcNAc(b1-6)[Neu5Ac(a2-3)Gal(b1-3)]GalNAc
# Procedure, shortened: (§1)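 Arrays were curated from the Consortium for Functional Glycomics database, 3228 in total, and kept only where the protein sequence was available. Binding is expressed as a within-array Z-score. This score was averaged across arrays of the same protein sequence at different concentrations or buffers and across linkers, and negative values can be read as non-binding.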
# [2] = target: Neu5Ac(a2-3)Gal(b1-4)GlcNAc6S
# Procedure, shortened: as §1
# [3] = target: Neu5Ac(a2-3)Gal(b1-4)[Fuc(a1-3)]GlcNAc
# Procedure, shortened: as §1
# [4] = target: Neu5Ac(a2-3)Gal(b1-4)[Fuc(a1-3)]GlcNAc(b1-3)Gal
# Procedure, shortened: as §1
# [5] = target: Neu5Ac(a2-3)Gal(b1-4)[Fuc(a1-3)]GlcNAc(b1-3)Gal(b1-4)GlcNAc
# Procedure, shortened: as §1
# [6] = target: Neu5Ac(a2-3)Gal(b1-4)[Fuc(a1-3)]GlcNAc(b1-3)Gal(b1-4)[Fuc(a1-3)]GlcNAc(b1-3)Gal(b1-4)[Fuc(a1-3)]GlcNAc
# Procedure, shortened: as §1
# [7] = target: Neu5Ac(a2-3)Gal(b1-4)[Fuc(a1-3)]GlcNAc(b1-3)GalNAc
# Procedure, shortened: as §1
# [8] = target: Neu5Ac(a2-3)Gal(b1-4)[Fuc(a1-3)]GlcNAc(b1-6)[Gal(b1-3)]GalNAc
# Procedure, shortened: as §1
# [9] = target: Neu5Ac(a2-3)Gal(b1-4)[Fuc(a1-3)]GlcNAc(b1-6)[Neu5Ac(a2-3)Gal(b1-3)]GalNAc
# Procedure, shortened: as §1
# [10] = target: Neu5Ac(a2-3)Gal(b1-4)[Fuc(a1-3)]GlcNAc6S
# Procedure, shortened: as §1
# [11] = target: Neu5Ac(a2-3)Gal6S(b1-4)GlcNAc
# Procedure, shortened: as §1
# [12] = target: Neu5Ac(a2-3)Gal6S(b1-4)[Fuc(a1-3)]GlcNAc
# Procedure, shortened: as §1
# Neu5Ac(a2-3)GalNAc = target: Neu5Ac(a2-3)GalNAc
# Procedure, shortened: as §1
# [13] = target: Neu5Ac(a2-3)GalNAc(b1-4)GlcNAc
# Procedure, shortened: as §1
# [14] = target: Neu5Ac(a2-3)[GalNAc(b1-4)]Gal(b1-4)Glc
# Procedure, shortened: as §1
# [15] = target: Neu5Ac(a2-3)[GalNAc(b1-4)]Gal(b1-4)GlcNAc
# Procedure, shortened: as §1
# [16] = target: Neu5Ac(a2-3)[GalNAc(b1-4)]Gal(b1-4)GlcNAc(b1-3)GalNAc
# Procedure, shortened: as §1
# [17] = target: Neu5Ac(a2-3)[Neu5Ac(a2-6)]GalNAc
# Procedure, shortened: as §1
# Neu5Ac(a2-6)Gal = target: Neu5Ac(a2-6)Gal
# Procedure, shortened: as §1
# [18] = target: Neu5Ac(a2-6)Gal(b1-3)GlcNAc(b1-3)[Gal(b1-4)GlcNAc(b1-6)]Gal(b1-4)Glc
# Procedure, shortened: as §1
# Neu5Ac(a2-6)Gal(b1-4)Glc = target: Neu5Ac(a2-6)Gal(b1-4)Glc
# Procedure, shortened: as §1
# [19] = target: Neu5Ac(a2-6)Gal(b1-4)GlcNAc
# Procedure, shortened: as §1
# [20] = target: Neu5Ac(a2-6)Gal(b1-4)GlcNAc(b1-2)Man(a1-3)Man(b1-4)GlcNAc(b1-4)GlcNAc
# Procedure, shortened: as §1
# [21] = target: Neu5Ac(a2-6)Gal(b1-4)GlcNAc(b1-2)Man(a1-3)[Gal(b1-4)GlcNAc(b1-2)Man(a1-6)]Man(b1-4)GlcNAc(b1-4)GlcNAc
# Procedure, shortened: as §1
# [22] = target: Neu5Ac(a2-6)Gal(b1-4)GlcNAc(b1-2)Man(a1-3)[GlcNAc(b1-2)Man(a1-6)]Man(b1-4)GlcNAc(b1-4)GlcNAc
# Procedure, shortened: as §1
# [23] = target: Neu5Ac(a2-6)Gal(b1-4)GlcNAc(b1-2)Man(a1-3)[GlcNAc(b1-2)Man(b1-4)GlcNAc(b1-2)Man(a1-6)]Man(b1-4)GlcNAc(b1-4)GlcNAc
# Procedure, shortened: as §1
# [24] = target: Neu5Ac(a2-6)Gal(b1-4)GlcNAc(b1-2)Man(a1-3)[Man(a1-6)]Man(b1-4)GlcNAc(b1-4)GlcNAc
# Procedure, shortened: as §1
# [25] = target: Neu5Ac(a2-6)Gal(b1-4)GlcNAc(b1-2)Man(a1-3)[Neu5Ac(a2-6)Gal(b1-4)GlcNAc(b1-2)Man(a1-6)]Man(b1-4)GlcNAc(b1-4)GlcNAc
# Procedure, shortened: as §1
# [26] = target: Neu5Ac(a2-6)Gal(b1-4)GlcNAc(b1-2)Man(a1-6)Man(b1-4)GlcNAc(b1-4)GlcNAc
# Procedure, shortened: as §1
# [27] = target: Neu5Ac(a2-6)Gal(b1-4)GlcNAc(b1-2)Man(a1-6)[Gal(b1-4)GlcNAc(b1-2)Man(a1-3)]Man(b1-4)GlcNAc(b1-4)GlcNAc
# Procedure, shortened: as §1
# [28] = target: Neu5Ac(a2-6)Gal(b1-4)GlcNAc(b1-2)Man(a1-6)[GlcNAc(b1-2)Man(a1-3)]Man(b1-4)GlcNAc(b1-4)GlcNAc
# Procedure, shortened: as §1
# [29] = target: Neu5Ac(a2-6)Gal(b1-4)GlcNAc(b1-2)Man(a1-6)[Man(a1-3)]Man(b1-4)GlcNAc(b1-4)GlcNAc
# Procedure, shortened: as §1
# [30] = target: Neu5Ac(a2-6)Gal(b1-4)GlcNAc(b1-3)Gal(b1-3)GlcNAc
# Procedure, shortened: as §1
# [31] = target: Neu5Ac(a2-6)Gal(b1-4)GlcNAc(b1-3)Gal(b1-4)GlcNAc
# Procedure, shortened: as §1
# [32] = target: Neu5Ac(a2-6)Gal(b1-4)GlcNAc(b1-3)Gal(b1-4)GlcNAc(b1-3)Gal(b1-4)GlcNAc
# Procedure, shortened: as §1
# [33] = target: Neu5Ac(a2-6)Gal(b1-4)GlcNAc(b1-3)Gal(b1-4)[Fuc(a1-3)]GlcNAc(b1-3)Gal(b1-4)[Fuc(a1-3)]GlcNAc
# Procedure, shortened: as §1
# [34] = target: Neu5Ac(a2-6)Gal(b1-4)GlcNAc(b1-3)GalNAc
# Procedure, shortened: as §1
# [35] = target: Neu5Ac(a2-6)Gal(b1-4)GlcNAc6S
# Procedure, shortened: as §1
binder,measurement,setting,value
"AAL (Aleuria aurantia), P18891 (protein) PTEFLYTSKIAAISWAATGGRQQRVYFQDLNGKIREAQRGGDNPWTGGSSQNVIGEAKLFSPLAAVTWKSAQGIQIRVYCVNKDNILSEFVYDGSKWITGQLGSVGVKVGSNSKLAALQWGGSESAPPNIRVYYQKSNGSGSSIHEYVWSGKWTAGASFGSTVPGTGIGATAIGPGRLRIYYQATDNKIREHCWDSNSWYVGGFSASASAGVSIAAISWGSTPNIRVYWQKGREELYEAAYGGSWNTPGQIKDASRPTPSLPDTFIAANSSGNIDISVFFQASGVSLQQWQWISGKGWSIGAVVPTGTPAGW",glycan array binding signal (z-score),[1],-0.421
same,glycan array binding signal (z-score),[2],-0.497
same,glycan array binding signal (z-score),[3],1.44
same,glycan array binding signal (z-score),[4],1.42
same,glycan array binding signal (z-score),[5],1.4
same,glycan array binding signal (z-score),[6],1.9
same,glycan array binding signal (z-score),[7],-0.031
same,glycan array binding signal (z-score),[8],-0.12
same,glycan array binding signal (z-score),[9],0.045
same,glycan array binding signal (z-score),[10],1.59
same,glycan array binding signal (z-score),[11],1.5
same,glycan array binding signal (z-score),[12],1.99
same,glycan array binding signal (z-score),Neu5Ac(a2-3)GalNAc,-0.531
same,glycan array binding signal (z-score),[13],-0.496
same,glycan array binding signal (z-score),[14],-0.5
same,glycan array binding signal (z-score),[15],-0.509
same,glycan array binding signal (z-score),[16],-0.431
same,glycan array binding signal (z-score),[17],-0.551
same,glycan array binding signal (z-score),Neu5Ac(a2-6)Gal,-0.481
same,glycan array binding signal (z-score),[18],-0.426
same,glycan array binding signal (z-score),Neu5Ac(a2-6)Gal(b1-4)Glc,-0.48
same,glycan array binding signal (z-score),[19],-0.506
same,glycan array binding signal (z-score),[20],-0.425
same,glycan array binding signal (z-score),[21],-0.423
same,glycan array binding signal (z-score),[22],-0.414
same,glycan array binding signal (z-score),[23],-0.434
same,glycan array binding signal (z-score),[24],-0.442
same,glycan array binding signal (z-score),[25],-0.469
same,glycan array binding signal (z-score),[26],-0.432
same,glycan array binding signal (z-score),[27],-0.434
same,glycan array binding signal (z-score),[28],-0.423
same,glycan array binding signal (z-score),[29],-0.431
same,glycan array binding signal (z-score),[30],-0.424
same,glycan array binding signal (z-score),[31],-0.505
same,glycan array binding signal (z-score),[32],-0.427
same,glycan array binding signal (z-score),[33],1.28
same,glycan array binding signal (z-score),[34],-0.392
same,glycan array binding signal (z-score),[35],-0.453
